Reference: the RNAGym collection of RNA variant scans (doi:10.1093/nar/gkz1192)
Read counts are not given, so values of variants with three or more changes are uncertain.

B1: CPEB3 Ribozyme (parent)
chain: UAACAGGGGGCCACAGCAGAAGCGUUCACGUCGCAGCCCCUGUCAGAUUCUGGUGAAUCUGCGAAUUCUGCUGUAUAUCUC

Variants of: B1
Experiment: self-cleavage, relative activity (ratio to wild type); higher = more cleavage; in vitro, sequencing
How it was run: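 Barcoded CPEB3 ribozyme mutants, produced by rounds of error-prone PCR, self-cleaved while being transcribed with T7 RNA polymerase for 5 hours at 37°C and during a subsequent 15 min DNase I step before EDTA was added. Sequencing of template-switched cDNA on Illumina gave cleaved and total reads, and DNA sequencing assigned barcodes to variants. Each variant's relative activity is its cleaved/total read fraction divided by the unmutated ribozyme's fraction, averaged across three batches. A variant needed a minimum of 5 reads.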

Variant	self-cleavage
UAACAGGGGGCCACAGCAGAAGCGUUCACGUCGCAGCCCCCGUCAGAUUCUGGUGAAUCUGCGAAAUCUGCUGUAUACCUC	0.42
UAACAGGGGGCCACAGCAGAAGCGUUCACGUCGCAGCCCCCGUCAGAUUCGGAUGAAUCUGCGAAUUCUGCUGUAUAUCUC	1.19
UAACAGGGGGCCACAGCAGAAGCGUUCACGUCGCAGCCCCCGUCAGAUUCUGGCGAAUCUGCGAAUUCUGCUGUAUAUCCC	0.98
UAACAGGGGGCCACAGCAGAAGCGUUCACGUCGCAGCCCCGGUCAGAUCCUGGUGAAUCUGCGAAUCCUGCUGUGUAUCUC	0.09
UAACAGGGGGCCACAGCAGAAGCGUUCACGUCGCAGCCCCCGUCAGAUUCUGGGGAAUCUGCGAAUUCUGCCGUAUAUCUC	1.13
UAACAGGGGGCCACAGCAGAAGCGUUCACGUCGCAGCCCCCGUCAGAUUCUGGGGAAUCUGCGAGUUCUGCUGUAUAUCUC	0.31
UAACAGGGGGCCACAGCAGAAGCGUUCACGUCGCAGCCCCCGUCAGAUUCCGGUGAAUCUGCGAAUUCUGCUGUAUAUCCC	1.05
UAACAGGGGGCCACAGCAGAAGCGUUCACGUCGCAGCCCCGGUCAGAUGCUGGUCAAUCUGCAAAUUCUGCUGUAUAUCUC	0.16
UAACAGGGGGCCACAGCAGAAGCGUUCACGUCGCAGCCCCGGUCAGAUUCAGGUGAGUCUGCGAAUUCUGCUGUAUAUCUC	0.16
UAACAGGGGGCCACAGCAGAAGCGUUCACGUCGCAGCCCCGGUCAGAUUCCGGUGAAUCUGCGAAUUCUGCUGCAUAUCUC	0.36
UAACAGGGGGCCACAGCAGAAGCGUUCACGUCGCAGCCCCGGUCAGAUUCUGCUGAAUCUGCGAAUUCUGCCGUAUAUCUC	0.2
UAACAGGGGGCCACAGCAGAAGCGUUCACGUCGCAGCCCCGGUCAGAUCCUGCCGAAUCUGCGAAUUCUGCAGUAUAUCUC	0.11
UAACAGGGGGCCACAGCAGAAGCGUUCACGUCGCAGCCCCCGUCAGAUUCUGGUGAAUCAGCGAAUUCUGCUGUAUACCUC	0.6
UAACAGGGGGCCACAGCAGAAGCGUUCACGUCGCAGCCCCCGUCAGAUUCUGGUGAAUCUGCGAAUUCUGCCGUAUAACUC	1.31
UAACAGGGGGCCACAGCAGAAGCGUUCACGUCGCAGCCCCCGUCAGAUUCUGGUGAAUCUGCGAAUUCUGCCGUAUAGCUC	1.26
UAACAGGGGGCCACAGCAGAAGCGUUCACGUCGCAGCCCCGGUCGGAUCCUGGUGAAUCUGCGAGCUCUGCUGUAUAUCUC	0.07
UAACAGGGGGCCACAGCAGAAGCGUUCACGUCGCAGCCCCGGACAGAUUCUGGUGAAUCUACGUAUCCUGCUGUAUUUCUC	0.07

Variant	self-cleavage
UAACAGGGGGCCACAGCAGAAGCGUUCACGUCGCAGCCCCGGUCAGUUUCUGGUGAAUCCGCGAAUUCUGCUGUAUAUCUC	0.11
UAACAGGGGGCCACAGCAGAAGCGUUCACGUCGCAGCCCCCGUCAGAUUCUGGUGAAUCUGCGAAUUCUGCAGUACAUCUC	1.03
UAACAGGGGGCCACAGCAGAAGCGUUCACGUCGCAGCCCCCGUCAGAUUCUGGAGAAUCUGCGAAUUCUGCAGUAAAUCUC	0.77
UAACAGGGGGCCACAGCAGAAGCGUUCACGUCGCAGCCCCGGUCAGAUUCUGGUGGAUCUGCGAAUUCUGCUGUAUAACUC	0.19
UAACAGGGGGCCACAGCAGAAGCGUUCACGUCGCAGCCCCGGUCAGAUUCUGAUGAAUCUGCGAAUUCUGCCGUAUAUAUC	0.12
UAACAGGGGGCCACAGCAGAAGCGUUCACGUCGCAGCCCCCGUCAGAUUCUGGUGAAUCUGCGAAUUCAGCUGUACAUCUC	0.76
UAACAGGGGGCCACAGCAGAAGCGUUCACGUCGCAGCCCCCGUCAGAUUCUGGUGAAUCUGCGAAUUCUGCUGCAUAUCAC	1.27
UAACAGGGGGCCACAGCAGAAGCGUUCACGUCGCAGCCCCCGUCAGAUUCUGGUGAAUCCGCGAAUUCUGCUGUUUAUCUC	0.65
UAACAGGGGGCCACAGCAGAAGCGUUCACGUCGCAGCCCCCGUCAGAUUCUGGUGAAUCUGCGAAUUCCGCUGUACAUCUC	0.76
UAACAGGGGGCCACAGCAGAAGCGUUCACGUCGCAGCCCCCGUCAGAUUCUGGUGAAUCCGCUAAUUCUGCUGUGUAUCUC	0.45
UAACAGGGGGCCACAGCAGAAGCGUUCACGUCGCAGCCCCCGUCAGAUUCUGGUGAAUCUGCGAAUUCAGCUGUACAUCCC	0.76
UAACAGGGGGCCACAGCAGAAGCGUUCACGUCGCAGCCCCCGUCAGAUUCUGGUGAAUCUGCGAAUUCCGCCGUAUAUCUC	0.41
UAACAGGGGGCCACAGCAGAAGCGUUCACGUCGCAGCCCCGGUCAGAUUCUGGUGAAACUGCGAAUUCUGCUGCAUAUCUC	0.13
UAACAGGGGGCCACAGCAGAAGCGUUCACGUCGCAGCCCCGGACAGAUCCUGGUGUAUCUGCGAAUUCUGCUGUAUAUCCC	0.07
UAACAGGGGGCCACAGCAGAAGCGUUCACGUCGCAGCCCCGGUCAGAUUCUGGUGAUCCUGCGAAUUCUGCUGUAUAUCUC	0.14
UAACAGGGGGCCACAGCAGAAGCGUUCACGUCGCAGCCCCGGUCAGAUUCAGGAGUAUCCGCGAGUUCUGCUGUAUAGCUC	0.03
UAACAGGGGGCCACAGCAGAAGCGUUCACGUCGCAGCCCCCGUCAGAUUCUGGCGAGUCUGCGGAUUCUGCUGUAUAUCUC	0.46
